Test results reported in the supplement of paper PMC4967469.
IC50 is the fitted dose that halves viability relative to control wells, and lower means more sensitive; where the fit passes the top or lowest dose, that dose stands as a limit. AUC is the area under the same curve over the 256-fold range up to the top dose, as a fraction: 1 means no effect, lower means more sensitive. For some assays here: A top dose marked as inferred is not printed in the source and was worked back from the curve model. For some assays here: Drugs with an entry number were screened twice under separate entries, and the two screens often disagree.

What was measured:
Assay in all cases: Viability of human cancer cell lines after 72 h of drug (GDSC screen)
NSC-207895 = compound: CN1CCN(c2ccc([N+](=O)[O-])c3no[n+]([O-])c23)CC1 [NSC-207895]; details: top dose 20 µM; top dose inferred
Procedure: (§1)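 Human cancer cell lines in 384-well plates, medium with 10% serum, drug for 72 h over a 256-fold dose range (nine 2-fold or five 4-fold steps up to the top dose). Adherent lines were fixed and stained with the nucleic acid dye Syto60, suspension lines read with resazurin; signal relative to control wells, capped at 0 and 100%. One two-parameter sigmoid per drug and line, fitted in a mixed model over all curves with the slope shared within a line.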

JNK Inhibitor VIII = compound: CCOc1nc(NC(=O)Cc2cc(OC)ccc2OC)cc(N)c1C#N [JNK Inhibitor VIII]; details: top dose 10 µM; top dose inferred
Procedure: as §1

YM155 = compound: COCC[n+]1c2c(n(Cc3cnccn3)c1C)C(=O)c1ccccc1C2=O [YM155]; details: top dose 5.12 µM
Procedure: as §1

OSI-906 = compound: C[C@]1(O)C[C@@H](c2nc(-c3ccc4ccc(-c5ccccc5)nc4c3)c3c(N)nccn32)C1 [OSI-906]; details: top dose 2.56 µM; top dose inferred
Procedure: as §1

SB-715992 = compound: Cc1ccc(C(=O)N(CCCN)[C@@H](c2nc3cc(Cl)ccc3c(=O)n2Cc2ccccc2)C(C)C)cc1 [SB-715992]; details: top dose 0.128 µM; top dose inferred
Procedure: as §1

FTI-277 = compound: COC(=O)[C@H](CCSC)NC(=O)c1ccc(NC[C@@H](N)CS)cc1-c1ccccc1 [FTI-277]; details: top dose 1.024 µM; top dose inferred
Procedure: as §1

Cyclopamine = compound: CC1=C2C[C@H]3[C@@H](CC=C4C[C@@H](O)CC[C@@]43C)[C@@H]2CC[C@]12O[C@@H]1C[C@H](C)CN[C@H]1[C@H]2C [Cyclopamine]; details: top dose 16 µM; top dose inferred
Procedure: as §1

AMG-706 = compound: CC1(C)CNc2cc(NC(=O)c3cccnc3NCc3ccncc3)ccc21 [AMG-706]; details: top dose 2 µM; top dose inferred
Procedure: as §1

PHA-665752 = compound: Cc1[nH]c(/C=C2\C(=O)Nc3ccc(S(=O)(=O)Cc4c(Cl)cccc4Cl)cc32)c(C)c1C(=O)N1CCC[C@@H]1CN1CCCC1 [PHA-665752]; details: top dose 2 µM
Procedure: as §1

JQ1 = compound: Cc1sc2c(c1C)C(c1ccc(Cl)cc1)=N[C@@H](CC(=O)OC(C)(C)C)c1nnc(C)n1-2 [JQ1]
Procedure: as §1

Belinostat = compound: O=C(/C=C/c1cccc(S(=O)(=O)Nc2ccccc2)c1)NO [Belinostat]; details: top dose 20 µM; top dose inferred
Procedure: as §1

CGP-60474 = compound: OCCCNc1cc(-c2ccnc(Nc3cccc(Cl)c3)n2)ccn1 [CGP-60474]; details: top dose 0.256 µM; top dose inferred
Procedure: as §1

JNJ-26854165 = compound: c1ccc2c(CCNc3ccc(Nc4ccncc4)cc3)c[nH]c2c1 [JNJ-26854165]; details: top dose 10 µM
Procedure: as §1

Docetaxel = compound: CC(=O)O[C@@]12CO[C@@H]1C[C@H](O)[C@@]1(C)C(=O)[C@H](O)C3=C(C)[C@@H](OC(=O)[C@H](O)[C@@H](NC(=O)OC(C)(C)C)c4ccccc4)C[C@@](O)([C@@H](OC(=O)c4ccccc4)[C@H]21)C3(C)C [Docetaxel]; details: top dose 0.0125 µM
Procedure: as §1

NVP-TAE684 = compound: COc1cc(N2CCC(N3CCN(C)CC3)CC2)ccc1Nc1ncc(Cl)c(Nc2ccccc2S(=O)(=O)C(C)C)n1 [NVP-TAE684]; details: top dose 2 µM
Procedure: as §1

[1] = top dose 1 µM, screen: GDSC drug entry 1218, top dose inferred
[2] = top dose 2.56 µM, screen: GDSC drug entry 163

Cell Line	AUC (NSC-207895)	IC50 (NSC-207895) [nM]	AUC (JNK Inhibitor VIII)	IC50 (JNK Inhibitor VIII) [nM]	AUC (YM155)	IC50 (YM155) [nM]	AUC (OSI-906)	IC50 (OSI-906) [nM]	AUC (SB-715992)	IC50 (SB-715992) [nM]	AUC (FTI-277)	IC50 (FTI-277) [nM]	AUC (Cyclopamine)	IC50 (Cyclopamine) [nM]	AUC (AMG-706)	IC50 (AMG-706) [nM]	AUC (PHA-665752)	IC50 (PHA-665752) [nM]	AUC (JQ1; [1])	IC50 (JQ1; [1]) [nM]	AUC (JQ1; [2])	IC50 (JQ1; [2]) [nM]	AUC (Belinostat)	IC50 (Belinostat) [nM]	AUC (CGP-60474)	IC50 (CGP-60474) [nM]	AUC (JNJ-26854165)	IC50 (JNJ-26854165) [nM]	AUC (Docetaxel)	IC50 (Docetaxel) [nM]	AUC (NVP-TAE684)	IC50 (NVP-TAE684) [nM]
NCI-SNU-5 (stomach, suspension)	0.988	> 20000	0.986	> 10000	0.767	1930	0.989	> 2560	0.945	> 128	0.988	> 1020	0.989	> 16000	0.987	> 2000	0.366	52.9	0.979	> 1000	0.973	> 2560	0.753	6750	0.858	215	0.938	> 10000	0.81	6.69	–	–
NTERA-2 cl.D1 (testis, adherent)	0.587	2160	–	–	0.024	< 20	0.852	1950	0.978	> 128	0.972	> 1020	0.869	14600	–	–	0.972	> 2000	0.971	> 1000	0.382	76.1	0.341	453	0.647	40.7	0.89	> 10000	–	–	0.63	284
OCUB-M (breast, adherent)	0.808	8730	0.988	> 10000	0.036	< 20	0.938	> 2560	0.538	9.99	0.97	> 1020	0.99	> 16000	0.988	> 2000	0.99	> 2000	0.988	> 1000	0.656	404	0.285	341	0.706	55.5	0.943	> 10000	0.766	4.02	–	–
RL (B-cell lymphoma, suspension)	0.953	> 20000	0.989	> 10000	0.027	< 20	0.99	> 2560	0.819	65.4	0.98	> 1020	0.984	> 16000	0.99	> 2000	0.975	> 2000	0.985	> 1000	0.877	2210	0.282	321	0.99	> 256	0.979	> 10000	0.812	6	–	–
